Experimental data as given in PubChem BioAssay AID360 (National Center for Advancing Translational Sciences (NCATS), 2006).
About 550 (1.1%) of roughly 48,000 compounds were called active. Roughly 4% stayed inconclusive and do not appear here. Rule as the data show it: active = potency below about 15 µM; inconclusive = mostly about 16 µM to 33 µM; inactive = weaker than that. Some of the results follow.

Molecular target: Lysosomal acid glucosylceramidase (Homo sapiens) (UniProt P04062)
Assay: Glucocerebrosidase;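 also: the screen sought inhibitors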
Conditions: purified enzyme, resorufin glucoside fluorescence (screen aimed at inhibitors), 20 min; series mostly up to 77 µM
Summary of the method: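 Compounds titrated against 0.2 nM normal enzyme, 30 uM resorufin beta-D-glucopyranoside substrate, citrate/phosphate buffer with taurocholate and tween-20, pH 5.9. Reaction ran 20 min at room temperature; fluorescence (Ex 548/Em 600) gave AC50.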
Potency is read from the fitted curve at half-maximal effect.

Sequence of UniProt P04062 (P04062 whole entry, looked up): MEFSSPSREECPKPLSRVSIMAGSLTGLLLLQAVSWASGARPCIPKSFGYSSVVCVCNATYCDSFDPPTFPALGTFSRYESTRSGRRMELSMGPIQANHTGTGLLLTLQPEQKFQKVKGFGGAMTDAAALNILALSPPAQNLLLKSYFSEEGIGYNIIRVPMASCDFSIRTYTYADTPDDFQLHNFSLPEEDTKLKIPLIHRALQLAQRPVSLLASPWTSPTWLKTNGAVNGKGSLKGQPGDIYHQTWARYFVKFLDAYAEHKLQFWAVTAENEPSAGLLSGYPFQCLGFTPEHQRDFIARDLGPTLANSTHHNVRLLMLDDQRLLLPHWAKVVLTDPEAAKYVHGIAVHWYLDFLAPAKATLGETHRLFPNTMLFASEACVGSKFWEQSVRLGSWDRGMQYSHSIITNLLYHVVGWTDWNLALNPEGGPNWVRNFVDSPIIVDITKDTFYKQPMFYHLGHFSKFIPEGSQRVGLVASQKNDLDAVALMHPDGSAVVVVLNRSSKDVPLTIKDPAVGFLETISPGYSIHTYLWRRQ

| Structure (SMILES) | Potency |
| --- | --- |
| O=C(O)c1ccc2c(c1)CC(c1ccccc1)OC2=O (stereo unspecified) | inactive: > 76.9 µM |
| CCCCN(C(=O)NC(=O)Nc1c(C)cc(C)cc1C)S(C)(=O)=O | inactive: > 76.9 µM |
| CC(C)OC(=O)c1cn(-c2ccccc2)nc1-c1ccco1 | inactive: > 76.9 µM |
| Cc1cc(=O)oc2cc(OCC(=O)N3c4ccccc4CC3C)ccc12 (stereo unspecified) | inactive: > 76.9 µM |
| CCS(=O)(=O)N1CCC(c2nc(-c3ccc(C(F)(F)F)cc3)no2)CC1 | inactive: > 76.9 µM |
| N/C(=N\S(=O)(=O)c1cccs1)c1ccccc1 | inactive: > 76.9 µM |
| O=C(O)CSCCC(=O)Nc1ccc(F)cc1 | inactive: > 76.9 µM |
| c1ccc2c(c1)nnn2Cc1nnc2sc(-c3ccncc3)nn12 | inactive: > 76.9 µM |
| CC1CCCCN1CCNC(=O)Cn1nc(-c2ccccc2)ccc1=O (stereo unspecified) | inactive: > 76.9 µM |
| COc1ccccc1OC(=O)c1ccc(SC)cc1OC | inactive: > 76.9 µM |
| C=C(C)CSc1nc(N)cc(=O)[nH]1 | inactive: > 76.9 µM |
| CC(Sc1nnc(-c2ccc(Cl)cc2)n1C)C(N)=O (stereo unspecified) | inactive: > 76.9 µM |
| CCC(=O)N1CCc2cc(S(=O)(=O)NC(C(=O)NC(C)c3ccccc3)C(C)C)ccc21 (stereo unspecified) | inactive: > 76.9 µM |
| COc1cccc(NC(=O)c2oc3ccccc3c2NC(=O)c2ccc3c(c2)OCO3)c1 | inactive: > 76.9 µM |
| COc1ccc(C(=O)NC2(C(F)(F)F)N=C3SCCN3C2=O)cc1 (stereo unspecified) | inactive: > 76.9 µM |
| C/C(=C\C#N)n1nc(C)cc1N | inactive: > 76.9 µM |
| CCOC(=O)CCc1c(C)c2ccc(O)cc2oc1=O | inactive: > 76.9 µM |
| COc1ccc(C)cc1NC(=O)COCC(=O)O | inactive: > 76.9 µM |
| O=C(Nc1nccs1)c1ccc(S(=O)(=O)c2ccccc2)cc1 | inactive: > 76.9 µM |
| CCCCOC(=O)CNc1nnc(SCC(=O)OCC)[nH]c1=O | inactive: > 76.9 µM |
| O=C1c2ccccc2S(=O)(=O)N1Cc1nc2ccccc2s1 | inactive: > 76.9 µM |
| Cc1c(NC(=O)C(C#N)=C2CCCCC2)c(=O)n(-c2ccccc2)n1C | inactive: > 76.9 µM |
| CCCCCCn1c(N(CC)CC)nc2c1c(=O)[nH]c(=O)n2C | inactive: > 76.9 µM |

| Structure (SMILES) | Potency |
| --- | --- |
| COC(=O)C1=C(C)Nc2nnnn2C1c1ccco1 (stereo unspecified) | inactive: > 76.9 µM |
| Cc1cc(NC(=O)c2ccc(NC(=O)c3cccs3)cc2)no1 | active: 2.39 µM |
| O=C(CSCc1cccc(F)c1)N1CCN(c2ccccc2)CC1 | inactive: > 76.9 µM |
| COc1cc(-c2cc(C(=O)O)c3c(OC)c(OC)c(OC)cc3n2)ccc1O | inactive: > 76.9 µM |
| O=C(c1c[nH]c2ccc(S(=O)(=O)N3CCC4(CC3)OCCO4)cc2c1=O)N1CCOCC1 | inactive: > 76.9 µM |
| CCOc1ccc(NC(=O)COC(=O)c2cccnc2)cc1 | inactive: > 76.9 µM |
| COc1ccc(N(C(C)C(=O)NC2CCCCCC2)S(C)(=O)=O)cc1 (stereo unspecified) | inactive: > 76.9 µM |
| N#CC1=C(N)OC2=C(C(=O)CCC2)C12CCN(C(=O)OCc1ccccc1)CC2 | inactive: > 76.9 µM |
| Cc1ccc2c(c1)nnn2C1CCN(CC(=O)Nc2ccccc2N2CCOCC2)CC1 | inactive: > 76.9 µM |
| Cc1ccc(OCC(=O)Nc2nnn(C)n2)c(C)c1 | inactive: > 76.9 µM |
| CCOCCCn1c(=S)[nH]c2cc(C(=O)N3CCC(C(N)=O)CC3)ccc2c1=O | inactive: > 76.9 µM |
| CCC(=O)NC(Nc1cccc(C)n1)(C(F)(F)F)C(F)(F)F | inactive: > 76.9 µM |
| CCn1c(-c2ccc(F)cc2)n[nH]c1=S | inactive: > 76.9 µM |
| Cc1cccc(-n2nnnc2SCC(=O)c2cc(C)n(Cc3ccco3)c2C)c1 | inactive: > 76.9 µM |
| O=C1CC(N2CCC(c3nc4ccccc4s3)CC2)C(=O)N1 (stereo unspecified) | inactive: > 76.9 µM |
| COc1ccc(N2C(C)=CS/C2=C(/C#N)c2nnc(N3CCOCC3)n2-c2ccccc2)cc1 | inactive: > 76.9 µM |
| O=C(COc1ccc(N2CC(C(=O)O)CC2=O)cc1)Nc1cccc(C(F)(F)F)c1 (stereo unspecified) | inactive: > 76.9 µM |
| CCCCn1nc(CC(=O)O)c2ccccc2c1=O | inactive: > 76.9 µM |
| Cc1ccc(S(=O)(=O)N2CCC(C(=O)N[C@@H](C)C(=O)NCCc3ccccc3)CC2)cc1 | inactive: > 76.9 µM |
| CC1(C)CC(=O)C2=C(C1)NC(Nc1nc3ccccc3o1)=NC21CCCC1 | inactive: > 76.9 µM |
| CCn1cc(C(=O)N=c2sc3ccccc3n2C)c(=O)c2ccc(C)nc21 | inactive: > 76.9 µM |
| CCOC(=O)C1CCCN(Cc2nc(N)nc(Nc3ccc(Cl)cc3)n2)C1 (stereo unspecified) | inactive: > 76.9 µM |
| O=C(CC1SC2=NCCN2C1=O)Nc1ccc(Cl)cc1 (stereo unspecified) | inactive: > 76.9 µM |
